Some of the results follow. One pool of 16,384 single-stranded DNAs met each Rep nickase domain in vitro (3 µM enzyme, 1 h, 37 °C); shown is the middle of each 90-letter strand. Uncut reads are compared with the no-enzyme pool on a log2 scale; more negative means more cut, near 0 not cut, and no call is made. Shares of all reads are compared; uncut strands gain when others are lost, and binding without cutting may add a little.
Columns and labels:
Test in all cases: uncleaved DNA left, log2 of reads against the no-enzyme library (log2 ratio); higher = less cleavage (more negative = more Rep cleavage of the k-mer); sequences stand for … in CTCGTCCG…ACCGGAGA
[1] = test system: T1, Rep nickase domain of Muscovy duck circovirus
T1 sequence (protein, residues 1-111, tag omitted): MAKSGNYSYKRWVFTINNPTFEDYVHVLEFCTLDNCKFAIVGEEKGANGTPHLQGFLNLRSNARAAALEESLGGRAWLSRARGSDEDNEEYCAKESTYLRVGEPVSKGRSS
Protocol: (§1)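 A pool of 90-nt single-stranded DNAs with seven random bases just before the constant AC of the nick site (name = the seven bases) was cut by 3 µM recombinant His6-SUMO-tagged Rep nickase domain (300 nM DNA, 50 mM HEPES pH 8.0, 50 mM NaCl, 1 mM MnCl2, 1 h, 37 °C, three replicates). Uncut DNA was amplified and sequenced.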

[2] = test system: T2, Rep nickase domain of banana bunchy top virus
T2 sequence (protein, residues 1-94, tag omitted): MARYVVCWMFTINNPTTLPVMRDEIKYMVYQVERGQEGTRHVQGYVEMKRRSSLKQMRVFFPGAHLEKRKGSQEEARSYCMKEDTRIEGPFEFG
Protocol: as §1

[3] = test system: T3, Rep nickase domain of cabbage leaf curl virus
T3 sequence (protein, residues 1-116, tag omitted): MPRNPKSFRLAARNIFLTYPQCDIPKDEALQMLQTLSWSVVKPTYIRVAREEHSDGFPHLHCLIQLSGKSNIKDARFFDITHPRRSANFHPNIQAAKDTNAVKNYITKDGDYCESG
Protocol: as §1

[4] = test system: T4, Rep nickase domain of chickpea chlorotic dwarf virus
T4 sequence (protein, residues 1-124, tag omitted): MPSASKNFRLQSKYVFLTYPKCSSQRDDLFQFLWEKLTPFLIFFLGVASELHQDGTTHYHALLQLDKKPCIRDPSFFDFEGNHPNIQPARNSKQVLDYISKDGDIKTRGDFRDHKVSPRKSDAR
Protocol: as §1

[5] = test system: T5, Rep nickase domain of faba bean necrotic yellows virus
T5 sequence (protein, residues 1-98, tag omitted): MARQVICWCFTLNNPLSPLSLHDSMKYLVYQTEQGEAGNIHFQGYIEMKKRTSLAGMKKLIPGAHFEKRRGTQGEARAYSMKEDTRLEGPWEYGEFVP
Protocol: as §1

[6] = test system: T6, Rep nickase domain of maize striate mosaic virus
T6 sequence (protein, residues 1-117, tag omitted): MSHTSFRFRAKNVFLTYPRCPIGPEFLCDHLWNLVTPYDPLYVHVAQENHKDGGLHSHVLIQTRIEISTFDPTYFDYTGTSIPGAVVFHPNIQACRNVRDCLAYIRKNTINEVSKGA
Protocol: as §1

[7] = test system: T7, Rep nickase domain of porcine circovirus 2
T7 sequence (protein, residues 2-116, tag omitted): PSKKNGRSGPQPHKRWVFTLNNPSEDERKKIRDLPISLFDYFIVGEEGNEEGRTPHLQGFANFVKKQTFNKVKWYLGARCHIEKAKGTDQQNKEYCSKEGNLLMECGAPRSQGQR
Protocol: as §1

[8] = test system: T8, Rep nickase domain of tomato golden mosaic virus
T8 sequence (protein, residues 1-124, tag omitted): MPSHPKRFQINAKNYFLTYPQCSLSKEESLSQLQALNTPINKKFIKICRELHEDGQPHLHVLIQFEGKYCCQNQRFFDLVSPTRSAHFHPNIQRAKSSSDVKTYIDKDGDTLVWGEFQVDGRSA
Protocol: as §1

[9] = test system: T9, Rep nickase domain of tomato yellow leaf curl virus
T9 sequence (protein, residues 1-136, tag omitted): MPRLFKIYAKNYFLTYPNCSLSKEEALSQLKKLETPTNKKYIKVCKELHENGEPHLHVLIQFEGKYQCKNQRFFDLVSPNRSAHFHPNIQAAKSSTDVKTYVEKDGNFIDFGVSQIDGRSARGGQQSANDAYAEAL
Protocol: as §1

[10] = test system: T10, Rep nickase domain of wheat dwarf virus
T10 sequence (protein, residues 1-137, tag omitted): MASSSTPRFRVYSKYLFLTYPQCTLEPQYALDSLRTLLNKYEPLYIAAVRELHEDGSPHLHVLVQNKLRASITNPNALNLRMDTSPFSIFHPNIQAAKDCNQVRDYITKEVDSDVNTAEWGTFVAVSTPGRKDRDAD
Protocol: as §1

Sequence	uncleaved DNA left (log2) [1]	uncleaved DNA left (log2) [2]	uncleaved DNA left (log2) [3]	uncleaved DNA left (log2) [4]	uncleaved DNA left (log2) [5]	uncleaved DNA left (log2) [6]	uncleaved DNA left (log2) [7]	uncleaved DNA left (log2) [8]	uncleaved DNA left (log2) [9]	uncleaved DNA left (log2) [10]
ACGATGG	0.0137	-0.0773	-0.598	-0.315	-0.0766	-0.886	0.000696	-0.0839	-0.0433	0.00622
CTGCTGT	-0.0172	-0.0811	-0.0901	0.0893	-0.265	0.00926	0.0611	-0.104	-0.129	-0.0882
GAATCTA	0.00913	0.0573	-0.424	-1.66	-0.0362	0.618	-0.431	-0.0514	0.0146	-0.161
GACTCTA	0.0434	-0.02	0.0758	-1.31	0.0327	0.693	-1.55	0.00629	0.00766	0.141
GCTCTCC	-0.00537	-0.00195	-0.0905	0.288	-0.0454	0.952	0.0554	-0.0883	-0.0196	-0.00934
AACGTAG	0.0101	0.0145	-0.617	-0.809	0.0125	-1.07	0.213	0.00805	0.064	0.00378
GAGAGCT	0.239	0.00206	0.207	-0.0788	-0.0332	0.488	-2.3	0.119	0.0806	0.175
TGATCTA	-0.0784	0.0439	0.197	-0.3	-0.0634	0.343	-0.158	-0.112	0.0815	0.103
CGTCGCC	0.0768	-0.00038	-0.0163	0.0219	-0.0972	-0.352	0.0869	-0.0263	-0.102	-0.0187
AAATAAC	-0.0134	-0.0362	-1.37	-2.53	-0.0438	-1.2	-0.125	-0.096	-0.092	-0.199
TGTCCTC	0.0134	-0.0814	0.302	0.468	-0.0226	1.13	0.0377	-0.0132	0.0886	0.0784
TATCGAG	0.0027	-0.0953	-0.0353	-0.0872	0.00633	-0.921	0.114	-0.0695	-0.0446	-0.0216
TGTGAAC	0.00643	0.0929	0.365	0.701	-0.0689	1.38	0.00644	0.0891	0.137	0.0216
ATGCAAG	0.0939	0.0537	-0.681	-0.251	0.0818	-1.11	0.0901	0.112	0.0899	0.0216
AAAACGA	0.0843	-0.0375	-0.234	-0.738	-0.0199	-1.21	0.0692	-0.0439	0.0377	-0.144
TCCCGCT	0.0172	-0.158	-0.307	-0.957	-0.0556	-0.839	-0.098	-0.112	0.0466	-0.0295
CGAGATG	0.0271	0.132	0.188	0.821	-0.00327	1.21	0.257	0.27	0.0103	0.0666
GGAGAAA	0.178	0.269	0.863	1.81	0.132	2.18	0.307	0.244	0.329	0.412
GTGGAAC	-0.00167	0.0793	0.362	0.872	-0.0359	1.97	0.146	0.165	0.0312	0.0321
CGGCTCA	0.0327	0.071	0.0274	-0.0197	0.0414	0.55	0.0189	-0.0499	0.0996	0.0298
GTTCGGG	0.042	-0.082	0.214	0.547	-0.0381	0.25	-0.035	-0.012	0.048	-0.0607

Sequence	uncleaved DNA left (log2) [1]	uncleaved DNA left (log2) [2]	uncleaved DNA left (log2) [3]	uncleaved DNA left (log2) [4]	uncleaved DNA left (log2) [5]	uncleaved DNA left (log2) [6]	uncleaved DNA left (log2) [7]	uncleaved DNA left (log2) [8]	uncleaved DNA left (log2) [9]	uncleaved DNA left (log2) [10]
GTTGCGG	0.0613	-0.00609	-0.339	-0.428	0.0752	-0.4	0.125	0.00697	-0.0234	-0.134
CCCGGCT	-0.114	-0.0271	0.0386	-0.29	0.0483	-0.472	0.153	-0.057	-0.0106	0.00683
GGCATTC	0.0516	0.113	0.766	1.86	0.00422	2.18	0.199	0.0189	0.0436	0.148
GCGGCCA	0.0489	0.0266	0.451	0.937	-0.169	1.27	0.0156	-0.0615	-0.0155	0.0808
CTAAGGA	-0.0493	-0.0763	-0.0239	0.0674	-0.0192	-0.325	0.0937	0.0369	-0.076	0.0344
AACTCCC	-0.297	-0.0584	-0.174	-0.464	-0.0399	-0.0367	-1.73	-0.0812	0.0435	-0.125
CATAGCG	0.00897	-0.101	-0.688	0.378	-0.086	-0.444	0.0374	-0.0565	0.0459	-0.146
ACGCTAC	-0.058	-0.182	-0.591	-1.99	-0.0935	-0.679	0.00669	-0.0334	-0.05	-0.188
ACACGAT	-0.0716	-0.0811	-0.372	-0.836	0.038	-0.666	0.138	0.0631	-0.0901	-0.0643
GTGCCCA	-0.0086	0.163	0.257	0.949	0.0312	1.68	-0.0116	0.0193	0.0703	0.0917
TGAGCGA	-0.0651	0.0839	-0.362	-0.401	-0.0123	-0.929	0.0297	0.0494	0.022	-0.0127
TGGCGCG	-0.187	-0.121	-0.869	-0.126	-0.06	-0.772	0.0481	-0.117	-0.0961	-0.153
GGCATTA	-0.0683	0.0243	0.769	1.62	-0.0345	1.98	0.183	-0.0773	0.0238	0.205
GATAAGG	0.0349	0.133	0.246	1.09	-0.0211	1.11	0.104	0.0921	0.0438	-0.00331
GTGAAGG	-0.0836	0.142	0.34	1.12	0.0674	1.27	0.13	0.0861	0.12	0.0929
AAAAACG	0.0831	0.0946	-0.797	-0.0821	0.0863	-0.924	0.202	0.0852	0.0114	0.00397
TCGGACC	0.00584	0.0873	0.221	0.831	-0.0578	0.873	0.142	0.146	-0.011	0.181
GACCAAA	-0.116	-0.0328	0.138	0.368	-0.0158	0.204	-0.0238	-0.0836	-0.0297	0.0685
TCTAAAA	0.0146	-0.0461	0.0351	-0.013	-0.0304	-0.468	0.0762	-0.0385	-0.141	-0.038
GGCTCTA	0.124	0.162	0.412	0.866	-0.0436	1.61	0.0713	-0.00112	0.139	0.137
TTGGTAC	-0.14	-0.0594	0.231	0.0883	-0.065	0.469	-0.0737	-0.0767	0.0652	-0.0605

Sequence	uncleaved DNA left (log2) [1]	uncleaved DNA left (log2) [2]	uncleaved DNA left (log2) [3]	uncleaved DNA left (log2) [4]	uncleaved DNA left (log2) [5]	uncleaved DNA left (log2) [6]	uncleaved DNA left (log2) [7]	uncleaved DNA left (log2) [8]	uncleaved DNA left (log2) [9]	uncleaved DNA left (log2) [10]
GCAAACG	0.024	-0.0157	-0.721	-0.306	-0.0788	-0.809	0.168	-0.0548	-0.0849	-0.142
CAAAATG	0.246	0.0232	-0.584	-1.01	0.0992	-1.07	0.13	0.0838	0.0818	-0.0342
ATCCGTC	-0.0388	-0.0633	-0.137	-0.165	-0.144	-0.711	0.0056	-0.0215	0.0325	-0.204
AGGGTTC	-0.00835	-0.129	0.0229	0.413	-0.229	0.734	-0.0917	-0.0675	-0.0328	-0.0702
GGAACTC	0.00722	0.0799	0.743	1.77	-0.0156	2.07	0.184	-0.0328	0.0944	0.162
ACCATCA	0.121	0.103	-0.321	-1.02	0.153	-0.834	0.17	0.113	0.0792	0.146
CGTCTTA	-0.0155	-0.015	0.124	-0.615	0.0807	-0.0784	-0.24	-0.0801	0.064	0.196
GTGACCG	-0.00156	0.00559	0.00769	0.576	-0.0302	0.174	0.0141	-0.000471	-0.091	-0.034
GACTTAC	0.0155	-0.0904	0.184	-0.367	-0.071	0.658	-0.23	-0.0271	-0.14	-0.0509
GGGCACC	-0.0576	0.0408	0.69	1.84	-0.0485	2.14	0.158	-0.00214	0.103	0.168
ATCAATC	0.16	0.246	0.309	1.31	0.00335	0.876	-0.0446	0.092	0.0956	0.287
ATACTTG	0.12	-0.0576	-0.386	-1.38	-0.0455	-0.992	0.13	-0.0071	-0.0223	-0.0654
TCCTTAA	-0.0154	-0.0594	0.0306	-0.362	-0.115	-0.486	-0.0763	-0.00235	-0.0816	-0.067
AACAGGA	0.0975	0.0311	0.19	0.501	0.0206	-0.255	0.164	-0.00836	-0.0406	0.0649
TACAGTC	-0.0451	0.026	-0.177	-0.848	0.000389	-1	-0.00386	-0.0973	0.0342	-0.0136
GTCCCAT	0.208	0.336	0.515	1.15	0.119	1.91	0.333	0.189	0.236	0.317
GCACTGA	0.0478	0.166	0.0338	0.519	-0.0936	0.841	0.133	0.0971	-0.0374	0.00266
TCCCGTT	-0.06	0.13	0.143	-1.03	0.102	-0.309	-0.0581	-0.193	-0.00741	0.00381
TCACATC	0.223	0.00313	-0.00325	-0.225	0.0113	-0.864	0.191	0.0891	0.0668	0.0996
TGAGAGC	0.165	0.089	0.0926	0.196	0.09	-0.43	0.202	0.00911	0.0192	0.0674
